In the supplement of paper PMC11417369:
This is one part of the list.

Tested on: PF3D7_0420300 AP2 domain 1 (GST-tagged)
Test: gcPBM binding intensity (ln(normalized median fluorescence intensity)); higher = stronger DNA binding
How it was run: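 Alexa488 anti-GST antibody, scanned at 488 nm, detected GST-tagged P. falciparum DNA-binding domains that had been expressed in E. coli and incubated for 1 h on an Agilent 4 × 180k array. The array carried primer-extended double-stranded 36-bp intergenic genomic probes and negative controls. Binding intensity is the highest Masliner-normalised natural-log median intensity across replicate spots of either orientation of each probe.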

Sequence	gcPBM binding intensity (ln)
AAATTATTAAAAAAGTGTACATATTTTTATAATACC [XGTACX_site5610]	9.19
ATAAGCATACATATTACACACATATAACATCTATAT [CACACA_site7219]	9.68
TTAATCAAATTACTATGTACATAAAACATATAAGAA [XGTACX_site381]	9.28
TATTTTTTTTCAAAAAAGTTTATTTAGAACTAAATA [XGTACX_negctrl_site487]	8.6
AAATATACATACATATGTACATATATATATATATAT [XGTACX_site8202]	9.21
ACAATAAAGAACAGTATGCACTTTTATGCATGCGTA	9.26
ATAGTTAAAAAAAAAAAAAAAAAAAAAAGAGAGAGA [CACACA_negctrl_site1307]	9.21
CTTTTTCTTTTCCGGCGTACAGACTTAGTAGTAGAT [XGTACX_site2268]	9.11
TAAAATATAGGAAATACATGCATATTAAATATTCCT [TGCATGCA_site1057]	9.26
TACTTCATTCATTTTACACACATATAAACCCTTTTA [CACACA_site3229]	9.7
TACATGCAAAAAATTCCACACACACCCCCACATATA [CACACA_site8329]	10.2
TATATAGCTAAAAACACACAAATATGTACACATAAA [CACACA_site7665]	9.58
ACTAATACATAAAAAAGTACAAATATGAGTATTAAC [XGTACX_site7281]	9.71
AATATTCAATATAAAGTGCATTATTGTGGACCTAAT	9.4
CAATTATTGTAATGCATGCACTGAATATAAAAAGAA	9.29
TTTATATGTATTAAGTGTACACATATAATGTATTTT [XGTACX_site16]	9.25
AAATTAATGTATATGTGAAGCAAGGGATGCGGCAGA [CACACA_negctrl_site406]	9.67
ATATATATATATATATAATATATAATATATATATAT [CACACA_negctrl_site96]	8.94
TAAAAAAAAACTCATGCACACAATATTATGAAAAAG [CACACA_site665]	9.57
TTATTTACAACTTCAAATTATGTGTAATACTACTAT [CACACA_negctrl_site741]	9.27
AAATATTATGTACGCACACACATTTTTAATATATAA [CACACA_site3851]	9.58
AGCACATTATTCAAAAGTACAAATAGGTATTGTATA [XGTACX_site6107]	9.18
TTTTTTTCTTTTTACATACACACAAAAAAATAAAAT [CACACA_site580]	9.27

Sequence	gcPBM binding intensity (ln)
AATATAAAAAAAAAAAAAAAAAAAAAAAAAAAGACA [CACACA_negctrl_site983]	9.49
TTGTTAATATGATAAAAGAGGAATATTCTCTTCCTA [GTGCAC_negctrl_site659]	8.79
AAGAGTTAAAAAAATACACACATATAGATTTTTTTA [CACACA_site7018]	9.42
ATAAATAAAAAAGAAAGAAAGAAAGAAACAAACAAA [CACACA_negctrl_site1198]	9.84
TATTAATGCAAATGTTATATGTGCATACATAAATGT [CACACA_negctrl_site790]	9.12
TATTACATACATATCTGTACATATATTAATGCACAA [XGTACX_site3315]	9.1
AAAAATATTAAAAAAGGTACACAGCATATCTCTTTT [XGTACX_site65]	9.31
TTCATATTCGATAAAGTGCATTAATTTTATTTATCA	9.08
TCCAATTGTTCTAGTGTGCACATAAATAAATCTCAT	9.35
AATACTTTTTTCTGTACACACTTGATTTACTATAAT [CACACA_site5544]	9.74
GATAAAGTAAAAATATGTACATATATATTTTAAGTT [XGTACX_site6439]	9.31
TATATCTGTAAATGCACACATATGTGGATATACTTA [CACACA_site5013]	9.31
GTTCATTCATTTTAATGTACAAATTTAACTTTTTCT [XGTACX_site680]	9.16
TCTAATAATATATACACACACATATATATTTATATA [CACACA_site2032]	9.71
TGCTACATTCTATGTACACACATATACATATATATA [CACACA_site893]	9.52
TATAAATATAAATACACACACATATAGATTATAGAT [CACACA_site6429]	10.1
AGAAATTATAAATACCTACACACTTATCAAAATAAA [CACACA_site2264]	9.55
TAAGACATGATATATACACACCTTGTTTTAATTTTC [CACACA_site5282]	9.43
AATTAAAATACAAATGTATGCATGTCTCATATAGAA [TGCATGCA_site822]	9.28
TTACGAATTACATATTGTACATATGCACAATTTTAA [XGTACX_site6802]	8.99
TACATAATTTAAAATTTTATAAGTTGTAATTCGTTT [XGTACX_negctrl_site308]	9.09
ATAAAACAACAAAGAAAATGAAAAAGTAAAAACATA [CACACA_negctrl_site596]	9.65
TATTTATAAAAAGATTGTACATTTTTTATTATTGTA [XGTACX_site6016]	8.97

Sequence	gcPBM binding intensity (ln)
TCCTATAATAACGTCACACATTAAATTTAATAAATT [CACACA_site4506]	9.21
AGTGCATACATGAATTGTACTTTAAAATAAATTCTA [XGTACX_site8156]	8.9
AAAAAAAAAAAAAAAACACACATATATCTATAATAT [CACACA_site6665]	9.54
TATACAAAATATTTTACACACACATATATATACATA [CACACA_site2616]	9.88
CATTATTTATTTTAATGTACTTATTTTTAAATTGGT [XGTACX_site8038]	9.15
TCTTTTCAATTATCCTATATTCTTTTATTTTTAATT [GTGCAC_negctrl_site326]	9.39
CATACACCCATACATACACACATACATACACCCATA [CACACA_site5124]	9.78
AACAAATAAAGCTATGACATGTTAAAATTGTTTCAC [XGTACX_negctrl_site67]	9.29
ATATCTAAATATATTACACACAGATATCTTCCTATA [CACACA_site3701]	9.58
AGAGAAAAATATTTGGACAAAAATAATATAATATAT [CACACA_negctrl_site656]	9.34
ATAAAGGAATTTTATACACACAACATATAAATATAT [CACACA_site7365]	9.75
ATTCGTATGAGCATAACACACAATATCGATATTTCT [CACACA_site4165]	9.46
TTAACATTATATGAAGGTACAGAAAAAAAAAAATTA [XGTACX_site8530]	9.2
TTTCTTATAGATTTTAATCCTCTATCAAAAAAAGAA [GTGCAC_negctrl_site162]	8.53
CATACAGTATTATACTGTACCCATACAAAAAAATAT [XGTACX_site6130]	9.36
AAATAAAAAAAATTTGCACACCTTCAAAGTAATATA [CACACA_site1583]	9.41
TTTTTAATATTCTATGCATGCATCGCATATTTGGTT [TGCATGCA_site1004]	9.26
CTTATTTAAGAGTATGAACACACATCATACACATAT [CACACA_site9205]	9.47
AAAATATAATATAATGCACACATAAACAAAAAAAAA [CACACA_site8161]	9.78
TTTTTTTTTTTTTTGGGTACATAATAATAACAAGTG [XGTACX_site1034]	8.85
TTTTATTTAACTCATAATTTTTTAAAAAACAATTAT [XGTACX_negctrl_site19]	8.88
CATGTAATATTAAACACACACTCATATAACTCAATA [CACACA_site4212]	9.68
CACATATACTTCTGTGCACACGAATATTTTTCTTCT [CACACA_site1408]	9.61

Sequence	gcPBM binding intensity (ln)
ATACATATATAAATACGTACATATATAATTATATAT [XGTACX_site8178]	9.28
AAATGAGAAGAAATACGTACATATAATAAAATAATT [XGTACX_site4439]	9.53
ATGCATAAATTTTGAAGTACAAAAAAAAAAAATAAA [XGTACX_site7282]	9.05
TTTCATTGGTTTATAAAATTATGAGATCTTAAAGAC [CACACA_negctrl_site1484]	8.92
TCTGTAAAGTAATGGACACACAATATATCCATTTAT [CACACA_site1536]	9.27
GAATAATATGGACATACACACATATACATACAGATA [CACACA_site5200]	9.91
ATATATATATATATATGTACATATATTTATATTTAT [XGTACX_site6179]	8.92
GCTACGTAAAAAATATGTACATATGAAATATTTTGC [XGTACX_site5111]	8.98
TTATATATCTATAATACACACATAATAATATATTTA [CACACA_site7423]	9.24
CATATATATATATATTGTACAAGATTGTTTTTTTAT [XGTACX_site3913]	9.19
ATGATCATAAGACACACACACAAAAAAAAAAAAAAA [CACACA_site6936]	9.59
TCTGTGCACGCATGAAGTACAAAAAAGGTTTCCAGT [XGTACX_site5049]	9.32
TATATTTTTTTAATATGTACATATATATATAAAACA [XGTACX_site2171]	8.86
CTATATACTAAATGCACACTTATATATTTATATATA [CACACA_site2454]	9.36
ATATATAATAAATACACACACATGTATTTATAAATA [CACACA_site5135]	9.62
TGAATTATAAATTATAGTACTTTATAATATGAACAT [XGTACX_site2317]	8.92
ATATAAATAAATTAGTGAAAAAAAAAAAATTTTTTT [CACACA_negctrl_site945]	9.12
CTCCATATGAAACACACACACAAATGAAAAAAATAT [CACACA_site3018]	10.1
AATTAACAAAGACACACACACACACGCACAAAAAAA [CACACA_site6388]	10.2
TTTAAAAAAATATATACACACATATATATATATATA [CACACA_site617]	9.13
